# From PubChem BioAssay AID1745853 (National Center for Advancing Translational Sciences (NCATS), 2022)
# Several values for one entry are separate records, joined by “and”; a condition that tells them apart may be missing. Equal values may be shown once. Some of the results follow. These are further read-outs of the screen, such as a control signal, another cell line or another target. No call is given for them.
# Key:
# Assay in all cases: Primary Screen for Target Class Profiling of Small Molecule Inhibitors of Methyltransferases
# [1] = target: Glycine N-methyltransferase (Homo sapiens) (UniProt Q14749); conditions: purified enzyme, MTase-Glo SAH luminescence; measured here: GNMT inhibition; at 40 µM; stronger effect = lower value
# Procedure, shortened: (§1)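 Each enzyme was assayed with SAM and its substrate. SAH formation detected by MTase-Glo luminescence; single-point 40 uM screen[…].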
# [2] = target: Histamine N-methyltransferase (Homo sapiens) (UniProt P50135); conditions: purified enzyme, MTase-Glo SAH luminescence; measured here: HNMT inhibition; at 40 µM; stronger effect = lower value
# Procedure, shortened: as §1
# [3] = target: Guanidinoacetate N-methyltransferase (Homo sapiens) (UniProt Q14353); conditions: purified enzyme, MTase-Glo SAH luminescence; measured here: GAMT inhibition; at 40 µM; stronger effect = lower value
# Procedure, shortened: as §1
# [4] = target: Nicotinamide N-methyltransferase (Homo sapiens) (UniProt P40261); conditions: purified enzyme, MTase-Glo SAH luminescence; measured here: NNMT inhibition; at 40 µM; stronger effect = lower value
# Procedure, shortened: as §1
# [5] = target: Phenylethanolamine N-methyltransferase (Homo sapiens) (UniProt P11086); conditions: purified enzyme, MTase-Glo SAH luminescence; measured here: PNMT inhibition; at 40 µM; stronger effect = lower value
# Procedure, shortened: as §1
# % is set by controls: 0 for no effect and ±100 for the full control effect.
Structure (SMILES),"activity change, negative = inhibition [1]","activity change, negative = inhibition [2]","activity change, negative = inhibition [3]","activity change, negative = inhibition [4]","activity change, negative = inhibition [5]"
COC(=O)[C@@H]1C2CC3c4[nH]c5ccccc5c4CCN3CC2CC[C@@H]1O (some centres not stated),-0.575%,7.56%,–,–,–
CCNC(=O)N1CC(C(=O)NCc2ccco2)CC(c2ccc(OC)c(OC)c2)C1 (configuration not stated),-8.09%,-1.75%,-1.69%,-3.52%,-2.97%
COc1ccc(OC)c(CCNC(=O)CCc2nnc3n(CCc4ccccc4)c(=O)c4ccccc4n23)c1,-6.67%,-1.09%,2.32%,-6.7%,-8.43%
CC(CNS(=O)(=O)C(C)C)c1ccc(-c2ccc(C#N)cc2)cc1 (configuration not stated),-6.08%,11.4%,1.32%,-10.2%,0.729%
c1cncc(CN2CC(N3CCc4ccccc43)C2)c1,-3.58%,-6.2%,-3.67%,0.57%,-5.99%
Cc1cccc(OC2(C(=O)O)CCN(c3cncc(C(N)=O)n3)CC2)c1,-3.06%,0.625%,0.088%,-2.15%,-0.042%
COCCCn1c(C)cc(C(=O)N[C@@H]2CN(C)C[C@H]2CN(C)C)c1C,-2.6%,1.25%,-1.21%,1.83%,1.87%
CCCn1c(=O)c2ccc(C(=O)NC(C)CC)cc2n2c(=O)n(CC(=O)c3ccc(OC)cc3)nc12 (configuration not stated),-0.42%,1.22%,0%,-3.96%,1.91%
COc1ccc(-c2ccc3nc(-c4cccc(F)c4)oc3c2)c(OC)c1OC,-11.9%,-5.47%,-2.37%,-3.46%,-11.2%
CNc1nc(C(=O)N2CCc3nc(-c4ccccc4)[nH]c3C2)cs1,-5.72%,-5.59%,-4.04%,-4.07%,-4.65%
CC(C)CCN(C1CCOCC1)C1CCN(Cc2cccnc2)CC1,-8.31%,-5.26%,-6.04%,-2.98%,-9.55%
CC(C)(C)c1ccc(-c2nc3c(N4CCN(Cc5ccc6nccnc6c5)CC4)cccc3[nH]2)cc1,-1.88%,-0.298%,-18.1%,-45.7%,-15.4%
Cc1ccc(CNC(=O)CSc2nnc3n(C)c(=O)c4ccc(C(=O)NC5CCCC5)cc4n23)cc1,-5.16%,1.4%,-3.62%,2.93%,-0.016%
CCCn1c(=O)c2ccc(Cl)cc2n2c(SCC(=O)Nc3ccc(F)cc3)nnc12,-0.622%,4.27%,1.32%,-2.54%,-2.32%
CNC(=O)[C@@H]1CCCC[C@@H]1C(=O)N1CCn2nc(Cc3ccccc3)cc2C1,-6.11%,-6.74%,-6.38%,-10.6%,1.55%
Cc1noc(C)c1C(=O)N(C)C1CCc2nnc(C)n2CC1 (configuration not stated),1.59%,-0.809%,-2.63%,4.13%,2.15%
CN1C(=O)c2cc(C(=O)NCc3ccccc3)nn2CC1(C)C(=O)NCc1ccc(F)cc1 (configuration not stated),9.43%,9.29%,0%,11.4%,3.72%
CN1CCN(C(=O)c2cc3n(n2)CC(C)(C(=O)NCc2ccc(F)cc2)N(C)C3=O)CC1 (configuration not stated),4.58%,-4.45%,0%,10.5%,5.82%
CC1(C)CC[C@]2(C(=O)O[C@@H]3O[C@H](CO[C@@H]4O[C@H](CO)[C@@H](O)[C@H](O)[C@H]4O[C@@H]4O[C@H](CO)[C@H](O)[C@H](O)[C@H]4O)[C@@H](O)[C@H](O[C@@H]4O[C@H](CO)[C@@H](O)[C@H](O)[C@H]4O)[C@H]3O)CC[C@]3(C)C(=CCC4[C@@]5(C)CC[C@H](O[C@@H]6OC[C@@H](O)[C@H](O)[C@H]6O)[C@@](C)(C(=O)O)C5CC[C@]43C)[C@@H]2C1 (some centres not stated),2.51%,2.8%,-1.23%,-15.4%,4.25%
CC1(C(=O)NC2CCCCCC2)Cn2c(ccc2-c2ccccc2)C(=O)N1CCN1CCOCC1 (configuration not stated),2.67%,-1.6%,0%,0.882%,-0.88%
COc1ccc2cc3n(c2c1)CC(C)(C(=O)NC1CCCC1)N(Cc1ccc2c(c1)OCO2)C3=O (configuration not stated),-6.32%,-1.44%,-2.67%,-9.02%,-3.65%
Cc1nnc2ccc(N3CCC(NC(=O)C(C)C)CC3)nn12,0.125%,1.36%,2.98%,-6.02%,0.666%
Cc1ccc(S(=O)(=O)NCCc2nc(-c3ccc4c(c3)ncn4C)no2)cc1,5.54%,11.2%,0%,1.18%,7.35%
C=CCn1c(=O)c2ccc(C(=O)NC(C)C)cc2n2c(=O)n(CC(=O)Nc3cccc(CC)c3)nc12,6.16%,9.86%,1.33%,2.49%,9.61%
O=C(COc1ccc(-c2nnc3n2CCCC3)cc1)NCc1ccccc1Br,-6.35%,-8.14%,-4.53%,-14%,-9.32%
O=C(CCc1nnc2n(Cc3ccc(Cl)cc3)c(=O)c3ccccc3n12)NCCC1=CCCCC1,-15% and -5.05%,-16.4% and 6.63%,-19.8% and 1.24%,-18.7% and -8.38%,-13.1% and 1.92%
CCCC(C(=O)O)c1c(C)nc2ccc(Cl)cc2c1-c1ccccc1 (configuration not stated),-8.43%,5.78%,-0.373%,-37.2%,-1.84%
CC(O)C1CCC2C3CCC4CC(OC5OC(C(=O)O)C(O)C(O)C5O)CCC4(C)C3CCC12C (configuration not stated),-29.2%,-5.38%,2.67%,-38.9%,-13.1%
